Results are given in words; binding and its absence hold for the method and conditions named. In cells and extracts the contact can be indirect. Some results given as binding are weak or reduced against the parent protein; the word gives no strength. For part of these data: Sequences can lack the tags named with a protein.
Tests used:
[1] = molecular target: T1, RBM15-Flag (wild type), MEG-01 stable cell line (human) (UniProt Q96T37); assay: co-IP; MEG-01 stable cell lines expressing RBM15-Flag or RBM15 R578K-Flag, with or without DB75 treatment; immunoprecipitated with anti-Flag antibody; WB for SF3B1
T1 sequence: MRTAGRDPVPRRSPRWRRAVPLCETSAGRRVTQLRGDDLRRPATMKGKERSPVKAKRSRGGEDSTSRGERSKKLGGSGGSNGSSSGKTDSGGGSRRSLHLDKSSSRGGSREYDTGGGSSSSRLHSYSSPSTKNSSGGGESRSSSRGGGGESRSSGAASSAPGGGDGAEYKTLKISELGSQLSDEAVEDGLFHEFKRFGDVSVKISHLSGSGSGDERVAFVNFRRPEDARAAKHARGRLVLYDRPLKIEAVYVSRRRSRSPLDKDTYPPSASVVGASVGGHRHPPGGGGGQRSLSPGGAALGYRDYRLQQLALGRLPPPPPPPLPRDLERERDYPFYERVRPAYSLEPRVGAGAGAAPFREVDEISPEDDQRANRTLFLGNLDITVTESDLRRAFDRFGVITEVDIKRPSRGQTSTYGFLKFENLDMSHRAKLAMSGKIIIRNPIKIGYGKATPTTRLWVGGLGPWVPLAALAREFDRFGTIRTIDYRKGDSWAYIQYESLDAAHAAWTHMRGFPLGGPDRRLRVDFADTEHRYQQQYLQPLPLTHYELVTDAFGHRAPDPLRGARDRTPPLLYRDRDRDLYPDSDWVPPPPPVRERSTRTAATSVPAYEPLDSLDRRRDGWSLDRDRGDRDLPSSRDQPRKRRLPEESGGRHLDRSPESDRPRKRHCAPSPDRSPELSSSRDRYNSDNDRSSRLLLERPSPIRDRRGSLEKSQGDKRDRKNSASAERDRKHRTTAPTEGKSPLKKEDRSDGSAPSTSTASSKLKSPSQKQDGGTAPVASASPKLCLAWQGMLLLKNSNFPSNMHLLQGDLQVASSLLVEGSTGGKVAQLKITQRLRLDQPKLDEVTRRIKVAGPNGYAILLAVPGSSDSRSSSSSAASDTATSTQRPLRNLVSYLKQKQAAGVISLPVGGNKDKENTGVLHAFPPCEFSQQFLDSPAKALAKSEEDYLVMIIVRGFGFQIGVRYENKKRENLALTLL

By UniProt entry, the sequences of proteins in these tests, tags left out.
UniProt O75533: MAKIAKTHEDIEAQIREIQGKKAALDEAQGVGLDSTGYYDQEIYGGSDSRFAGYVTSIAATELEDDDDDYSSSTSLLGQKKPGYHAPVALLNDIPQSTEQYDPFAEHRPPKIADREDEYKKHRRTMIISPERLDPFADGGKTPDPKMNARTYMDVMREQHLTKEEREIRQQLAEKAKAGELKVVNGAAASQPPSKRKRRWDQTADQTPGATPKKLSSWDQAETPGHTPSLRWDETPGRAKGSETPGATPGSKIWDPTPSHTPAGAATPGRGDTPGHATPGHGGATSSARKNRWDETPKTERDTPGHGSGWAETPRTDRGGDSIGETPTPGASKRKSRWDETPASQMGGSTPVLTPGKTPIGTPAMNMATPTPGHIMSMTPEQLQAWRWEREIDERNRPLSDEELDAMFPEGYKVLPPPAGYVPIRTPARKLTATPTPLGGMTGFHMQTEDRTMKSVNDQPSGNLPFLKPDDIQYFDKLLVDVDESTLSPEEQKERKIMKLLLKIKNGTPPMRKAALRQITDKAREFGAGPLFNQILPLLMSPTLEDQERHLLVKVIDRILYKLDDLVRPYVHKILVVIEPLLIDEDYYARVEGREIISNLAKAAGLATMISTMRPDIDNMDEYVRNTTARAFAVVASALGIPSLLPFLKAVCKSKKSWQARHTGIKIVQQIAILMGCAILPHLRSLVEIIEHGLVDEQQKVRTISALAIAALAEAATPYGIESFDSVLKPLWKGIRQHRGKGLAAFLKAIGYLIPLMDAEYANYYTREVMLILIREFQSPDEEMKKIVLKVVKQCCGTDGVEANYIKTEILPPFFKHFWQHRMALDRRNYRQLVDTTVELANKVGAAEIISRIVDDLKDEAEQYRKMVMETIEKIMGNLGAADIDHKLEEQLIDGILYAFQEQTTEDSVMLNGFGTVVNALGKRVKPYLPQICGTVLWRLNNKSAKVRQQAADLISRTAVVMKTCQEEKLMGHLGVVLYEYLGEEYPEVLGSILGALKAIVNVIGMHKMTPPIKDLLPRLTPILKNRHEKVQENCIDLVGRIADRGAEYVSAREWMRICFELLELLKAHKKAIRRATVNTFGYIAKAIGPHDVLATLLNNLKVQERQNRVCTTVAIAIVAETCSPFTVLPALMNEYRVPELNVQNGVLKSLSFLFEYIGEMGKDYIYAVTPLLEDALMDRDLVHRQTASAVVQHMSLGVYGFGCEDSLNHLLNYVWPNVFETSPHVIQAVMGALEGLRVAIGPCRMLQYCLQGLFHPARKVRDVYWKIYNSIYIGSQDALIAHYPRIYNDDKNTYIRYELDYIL

[2] = molecular target: T2, RBM15 R578K-Flag, MEG-01 stable cell line (human) (UniProt Q96T37); assay: as above
T2 sequence: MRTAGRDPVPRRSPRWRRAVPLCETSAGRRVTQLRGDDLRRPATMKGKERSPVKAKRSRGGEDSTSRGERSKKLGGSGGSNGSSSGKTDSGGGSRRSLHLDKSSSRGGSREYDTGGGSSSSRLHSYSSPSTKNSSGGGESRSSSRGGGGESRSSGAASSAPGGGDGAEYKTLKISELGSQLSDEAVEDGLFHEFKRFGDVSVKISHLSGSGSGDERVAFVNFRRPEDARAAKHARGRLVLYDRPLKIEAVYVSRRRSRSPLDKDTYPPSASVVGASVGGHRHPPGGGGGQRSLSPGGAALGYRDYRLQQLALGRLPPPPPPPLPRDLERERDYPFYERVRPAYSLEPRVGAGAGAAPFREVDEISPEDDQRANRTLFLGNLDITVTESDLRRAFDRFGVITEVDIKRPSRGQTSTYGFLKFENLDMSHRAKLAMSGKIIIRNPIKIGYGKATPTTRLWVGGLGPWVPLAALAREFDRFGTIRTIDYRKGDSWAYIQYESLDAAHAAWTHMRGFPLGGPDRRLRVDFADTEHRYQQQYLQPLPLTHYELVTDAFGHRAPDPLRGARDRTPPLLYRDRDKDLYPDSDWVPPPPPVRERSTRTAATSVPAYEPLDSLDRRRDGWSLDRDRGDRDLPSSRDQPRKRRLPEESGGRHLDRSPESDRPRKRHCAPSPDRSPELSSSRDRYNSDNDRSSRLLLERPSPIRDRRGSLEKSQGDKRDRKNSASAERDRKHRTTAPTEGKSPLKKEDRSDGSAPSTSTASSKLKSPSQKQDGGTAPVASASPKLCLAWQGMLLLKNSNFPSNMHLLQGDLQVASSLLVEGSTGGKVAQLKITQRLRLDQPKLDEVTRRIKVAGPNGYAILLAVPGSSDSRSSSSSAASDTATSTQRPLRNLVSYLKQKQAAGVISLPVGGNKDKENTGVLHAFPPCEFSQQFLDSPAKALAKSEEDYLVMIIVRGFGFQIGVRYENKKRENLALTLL

[3] = molecular target: T3, RBM15, endogenous in MEG-01 cells (human (endogenous in MEG-01)) (UniProt Q96T37); assay: co-IP; MEG-01 cells expressing inducible shPRMT1; immunoprecipitated with anti-RBM15 antibody, normal mouse serum as negative control; WB for endogenous SF3B1
T3 sequence: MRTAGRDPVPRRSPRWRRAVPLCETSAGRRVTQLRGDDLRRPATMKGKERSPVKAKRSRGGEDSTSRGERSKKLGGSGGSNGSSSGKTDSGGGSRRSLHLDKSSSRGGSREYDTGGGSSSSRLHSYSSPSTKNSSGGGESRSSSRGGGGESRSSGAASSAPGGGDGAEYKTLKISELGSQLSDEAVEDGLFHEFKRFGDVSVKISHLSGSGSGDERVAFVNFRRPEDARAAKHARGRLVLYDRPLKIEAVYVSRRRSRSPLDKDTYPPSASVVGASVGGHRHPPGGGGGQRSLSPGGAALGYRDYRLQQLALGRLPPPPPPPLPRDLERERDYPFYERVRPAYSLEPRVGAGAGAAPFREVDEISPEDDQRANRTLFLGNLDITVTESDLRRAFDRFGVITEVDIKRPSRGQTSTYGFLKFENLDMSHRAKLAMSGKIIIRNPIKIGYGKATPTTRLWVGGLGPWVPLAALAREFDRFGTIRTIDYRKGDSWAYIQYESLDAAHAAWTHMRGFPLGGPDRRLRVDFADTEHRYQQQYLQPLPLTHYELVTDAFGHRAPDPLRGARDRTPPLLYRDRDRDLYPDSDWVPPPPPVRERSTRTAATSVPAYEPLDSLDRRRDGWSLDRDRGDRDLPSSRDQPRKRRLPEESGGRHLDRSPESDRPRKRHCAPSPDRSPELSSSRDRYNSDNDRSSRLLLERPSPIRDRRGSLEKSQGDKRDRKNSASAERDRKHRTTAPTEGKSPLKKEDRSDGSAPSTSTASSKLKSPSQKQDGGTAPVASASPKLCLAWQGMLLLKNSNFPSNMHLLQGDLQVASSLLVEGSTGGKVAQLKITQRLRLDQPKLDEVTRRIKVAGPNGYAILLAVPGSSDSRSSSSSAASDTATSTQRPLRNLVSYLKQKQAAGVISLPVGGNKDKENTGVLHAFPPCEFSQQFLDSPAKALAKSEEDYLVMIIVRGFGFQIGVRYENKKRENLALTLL

[4] = molecular target: T4, RBM15 R578K-Flag, expressed in 293T cells (human) (UniProt Q96T37); assay: co-IP; 293T cells transfected with combinations of RBM15-Flag or R578K-Flag, PRMT1 and HA-CNOT4; RBM15-Flag affinity purified with anti-Flag; lysis buffer 20 mM Hepes pH 7.9, 150 mM NaCl, 1% NP40, with RNaseA 10 ug/ml, 4 C, 4 hr; WB
T4 sequence: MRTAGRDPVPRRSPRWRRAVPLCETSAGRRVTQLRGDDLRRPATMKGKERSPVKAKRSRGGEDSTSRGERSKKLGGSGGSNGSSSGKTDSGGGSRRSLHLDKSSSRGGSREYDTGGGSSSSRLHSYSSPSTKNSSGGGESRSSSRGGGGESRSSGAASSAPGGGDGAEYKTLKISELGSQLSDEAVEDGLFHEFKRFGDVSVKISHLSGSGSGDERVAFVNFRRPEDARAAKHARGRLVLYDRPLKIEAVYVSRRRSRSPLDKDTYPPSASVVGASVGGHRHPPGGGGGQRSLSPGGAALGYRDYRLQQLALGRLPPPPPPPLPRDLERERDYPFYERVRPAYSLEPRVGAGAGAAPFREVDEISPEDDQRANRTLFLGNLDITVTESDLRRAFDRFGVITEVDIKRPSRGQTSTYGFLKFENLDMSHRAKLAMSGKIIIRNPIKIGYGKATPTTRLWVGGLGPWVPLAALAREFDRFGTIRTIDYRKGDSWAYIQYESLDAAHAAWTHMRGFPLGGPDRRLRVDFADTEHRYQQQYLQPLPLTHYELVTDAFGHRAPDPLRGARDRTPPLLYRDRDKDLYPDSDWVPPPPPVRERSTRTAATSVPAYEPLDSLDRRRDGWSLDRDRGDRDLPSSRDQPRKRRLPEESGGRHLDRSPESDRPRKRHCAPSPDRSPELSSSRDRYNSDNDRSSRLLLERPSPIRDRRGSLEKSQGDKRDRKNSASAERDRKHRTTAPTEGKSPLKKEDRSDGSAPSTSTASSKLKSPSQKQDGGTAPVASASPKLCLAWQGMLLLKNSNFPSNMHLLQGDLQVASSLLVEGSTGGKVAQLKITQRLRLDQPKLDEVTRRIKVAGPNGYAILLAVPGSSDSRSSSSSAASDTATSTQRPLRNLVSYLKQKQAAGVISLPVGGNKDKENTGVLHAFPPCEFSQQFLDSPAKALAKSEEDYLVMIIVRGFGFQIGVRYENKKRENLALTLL

[5] = molecular target: T5, RBM15-Flag (wild type), expressed in 293T cells (human) (UniProt Q96T37); assay: as above
T5 sequence: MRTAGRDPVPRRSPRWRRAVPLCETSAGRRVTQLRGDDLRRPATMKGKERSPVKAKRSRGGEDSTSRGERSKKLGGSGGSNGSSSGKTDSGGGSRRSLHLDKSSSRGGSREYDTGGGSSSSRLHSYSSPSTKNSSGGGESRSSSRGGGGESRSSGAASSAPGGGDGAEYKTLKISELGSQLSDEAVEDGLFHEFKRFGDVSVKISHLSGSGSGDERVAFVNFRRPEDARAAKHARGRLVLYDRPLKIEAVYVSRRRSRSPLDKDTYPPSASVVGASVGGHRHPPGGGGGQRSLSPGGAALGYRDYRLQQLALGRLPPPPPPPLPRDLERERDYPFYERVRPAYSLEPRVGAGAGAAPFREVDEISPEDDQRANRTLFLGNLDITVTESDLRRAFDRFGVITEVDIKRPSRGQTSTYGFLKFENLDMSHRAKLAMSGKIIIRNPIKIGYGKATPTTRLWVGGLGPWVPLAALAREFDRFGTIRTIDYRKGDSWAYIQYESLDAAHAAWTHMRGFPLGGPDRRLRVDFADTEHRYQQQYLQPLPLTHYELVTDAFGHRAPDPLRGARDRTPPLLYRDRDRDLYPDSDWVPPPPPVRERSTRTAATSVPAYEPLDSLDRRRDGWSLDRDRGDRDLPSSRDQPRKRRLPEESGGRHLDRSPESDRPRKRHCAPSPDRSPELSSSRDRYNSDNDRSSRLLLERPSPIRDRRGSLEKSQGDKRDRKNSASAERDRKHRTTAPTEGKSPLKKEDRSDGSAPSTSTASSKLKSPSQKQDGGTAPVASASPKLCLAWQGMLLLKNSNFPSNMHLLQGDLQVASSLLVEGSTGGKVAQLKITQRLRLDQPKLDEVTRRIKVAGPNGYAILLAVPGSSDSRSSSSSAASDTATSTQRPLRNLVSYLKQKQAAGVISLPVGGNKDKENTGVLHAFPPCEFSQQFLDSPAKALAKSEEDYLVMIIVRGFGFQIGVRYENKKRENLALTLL

[6] = molecular target: T6, RBM15 peptide dimethylated on R578 (Biotin-LLYRDRDR(ME2A)…) (human); assay: pull-down; biotinylated RBM15 peptides (1 uM) on streptavidin beads incubated with MEG-01 whole cell extract overnight at 4 C; washed five times with 300 mM NaCl, 1 mM DTT, 20 mM Tris pH 7.4, 0.1% NP40; WB with anti-CNOT4; only the target purified
T6 sequence (peptide, R578 asymmetrically dimethylated (R_(ME2A)); biotin at the N-terminus as printed): LLYRDRDRDLYPDSDWV

SF3B1, endogenous in MEG-01 cells (from UniProt O75533 1-1304)
binding [1]: binds | binding [2]: binds | binding [3]: binds

B1: HA-tagged CNOT4, expressed in 293T cells (enzyme, UniProt O95628 1-575)
chain: MSRSPDAKEDPVECPLCMEPLEIDDINFFPCTCGYQICRFCWHRIRTDENGLCPACRKPYPEDPAVYKPLSQEELQRIKNEKKQKQNERKQKISENRKHLASVRVVQKNLVFVVGLSQRLADPEVLKRPEYFGKFGKIHKVVINNSTSYAGSQGPSASAYVTYIRSEDALRAIQCVNNVVVDGRTLKASLGTTKYCSYFLKNMQCPKPDCMYLHELGDEAASFTKEEMQAGKHQEYEQKLLQELYKLNPNFLQLSTGSVDKNKNKVTPLQRYDTPIDKPSDSLSIGNGDNSQQISNSDTPSPPPGLSKSNPVIPISSSNHSARSPFEGAVTESQSLFSDNFRHPNPIPSGLPPFPSSPQTSSDWPTAPEPQSLFTSETIPVSSSTDWQAAFGFGSSKQPEDDLGFDPFDVTRKALADLIEKELSVQDQPSLSPTSLQNSSSHTTTAKGPGSGFLHPAAATNANSLNSTFSVLPQRFPQFQQHRAVYNSFSFPGQAARYPWMAFPRNSIMHLNHTANPTSNSNFLDLNLPPQHNTGLGGIPVAGEEEVKVSTMPLSTSSHSLQQGQQPTSLHTTVA
binding [4]: no binding | binding [5]: binds

B2: CNOT4, endogenous in MEG-01 whole cell extract (enzyme, UniProt O95628 1-575)
chain: MSRSPDAKEDPVECPLCMEPLEIDDINFFPCTCGYQICRFCWHRIRTDENGLCPACRKPYPEDPAVYKPLSQEELQRIKNEKKQKQNERKQKISENRKHLASVRVVQKNLVFVVGLSQRLADPEVLKRPEYFGKFGKIHKVVINNSTSYAGSQGPSASAYVTYIRSEDALRAIQCVNNVVVDGRTLKASLGTTKYCSYFLKNMQCPKPDCMYLHELGDEAASFTKEEMQAGKHQEYEQKLLQELYKLNPNFLQLSTGSVDKNKNKVTPLQRYDTPIDKPSDSLSIGNGDNSQQISNSDTPSPPPGLSKSNPVIPISSSNHSARSPFEGAVTESQSLFSDNFRHPNPIPSGLPPFPSSPQTSSDWPTAPEPQSLFTSETIPVSSSTDWQAAFGFGSSKQPEDDLGFDPFDVTRKALADLIEKELSVQDQPSLSPTSLQNSSSHTTTAKGPGSGFLHPAAATNANSLNSTFSVLPQRFPQFQQHRAVYNSFSFPGQAARYPWMAFPRNSIMHLNHTANPTSNSNFLDLNLPPQHNTGLGGIPVAGEEEVKVSTMPLSTSSHSLQQGQQPTSLHTTVA
binding [6]: binds

Source: paper PMC4775220
